{"source": "PubChem BioAssay (Tox21)", "note": "Where “and” joins values, the source holds several entries; their conditions need not be identical. Equal values may be shown once. Inconclusive results, whose numbers are uncertain, are shown with a selection of clear calls. For part of these data: Where the call is inconclusive, the potency comes from a doubtful curve fit. Some compounds were tested as several samples or in several runs, with calls that do not always agree. Calls of active or inactive are those of the source. The call rests on the fitted dose curve; in most records, active means well fitted curve in the direction sought with a large enough effect in the repeat runs; inconclusive means weak or mixed curves; inactive means no such curve, though single readings can be large; an effect the other way counts as inactive or inconclusive. On the % scale 0 is the no-effect control and ±100 the full control effect; tags describe the fitted curve by direction and shape.", "data": [{"assay": "qHTS RealTime-Glo MT Cell Viability Assay in HEK293 cells - 16 hour (AID 1224872); further: nearly all actives have a fitted effect of over 50% in size; further: potency means the concentration at half of the fitted maximal effect", "conditions": "RealTime-Glo luminescence; series mostly up to 76.8 µM", "procedure,_shortened": "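Nonlytic real-time viability readout: viable cells convert prosubstrate to NanoLuc substrate, giving luminescence proportional to live cell number. HEK293, 600 cells/well, compound added after 5 h, continuous culture at 37 C.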", "values": [{"smiles": "CC(C)Cc1ccccc1", "Potency": "inconclusive: 17.1 µM [rising, full curve]"}, {"smiles": "NC(N)=NC(N)=NCCc1ccccc1", "Potency": "inconclusive: 19.4 µM [cytotoxic, partial curve] and inconclusive: 12.3 µM [cytotoxic, full curve, poor fit] and inactive"}, {"smiles": "CC(C)CCCCCCc1ccc(O)cc1", "Potency": "inconclusive: 54.9 µM [cytotoxic, single point]"}, {"smiles": "OCCO", "Potency": "inactive"}, {"smiles": "C[C@]12CC[C@@H]3c4ccc(O)cc4CC[C@H]3[C@@H]1CCC2=O", "Potency": "inconclusive: 5.4 µM [cytotoxic, full curve] and inconclusive: 26.8 µM [cytotoxic, partial curve, poor fit]"}, {"smiles": "CCOc1ccc([N+](=O)[O-])cc1", "Potency": "inconclusive: 44.3 µM [cytotoxic, partial curve]"}, {"smiles": "O=c1ccc2ccccc2o1", "Potency": "inactive"}, {"smiles": "CCCCC(CC)COC(=O)CC(C(=O)OCC(CC)CCCC)S(=O)(=O)O", "note": "(centres undefined)", "Potency": "inconclusive: 52.9 µM [cytotoxic, single point] and inconclusive: 38.9 µM [cytotoxic, partial curve]"}, {"smiles": "O=P(O)(O)O", "Potency": "inactive"}, {"smiles": "CC(C)(c1ccccc1)c1ccccc1", "Potency": "inconclusive: 32.2 µM [cytotoxic, partial curve, poor fit]"}, {"smiles": "CCCCCCCCCCCCCC(=O)OC(C)C", "Potency": "active: 4.36 µM"}, {"smiles": "COc1cc(Cc2cnc(N)nc2N)cc(OC)c1OC", "Potency": "inconclusive: 6.01 µM [cytotoxic, single point]"}]}, {"assay": "qHTS RealTime-Glo MT Cell Viability Assay in HepG2 cells - 8 hour (AID 1224873); further: nearly all actives have a fitted effect of over 55% in size", "conditions": "RealTime-Glo luminescence; series mostly up to 76.8 µM", "procedure,_shortened": "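HepG2 cells (600/well) mixed with RealTime-Glo MT reagent, settled 5 h at 37 C/5% CO2 before compound addition. Nonlytic NanoLuc luminescence from viable-cell prosubstrate reduction read repeatedly during 40 h treatment at 37 C.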", "values": [{"smiles": "CCCCC(CC)COC(=O)/C=C/c1ccc(OC)cc1", "note": "(centres undefined)", "Potency": "inactive"}, {"smiles": "C[C@]12C=CC(=O)C=C1CC[C@@H]1[C@@H]2[C@@H](O)C[C@@]2(C)[C@H]1CC[C@]2(O)C(=O)CO", "Potency": "inactive"}, {"smiles": "O=C(O)c1ccc2c(c1)C(=O)OC2=O", "Potency": "inactive"}, {"smiles": "COc1ccc2cc([C@H](C)C(=O)O)ccc2c1", "Potency": "inactive"}]}, {"assay": "qHTS RealTime-Glo MT Cell Viability Assay in HEK293 cells - 40 hour (AID 1224874); further: nearly all actives have a fitted effect of over 50% in size; further: potency means the concentration at half of the fitted maximal effect", "conditions": "RealTime-Glo luminescence; max response: stronger effect = lower value", "procedure,_shortened": "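Measured as luminescence from the same continuously cultured HEK293 wells at successive time points (0, 8, 16, 24, 32, 40 h) after compound addition. Reagent present from seeding; dosing at 5 h; incubation 37 C.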", "values": [{"smiles": "NC(N)=NC(N)=NCCc1ccccc1", "Potency": "inconclusive: 6.88 µM [cytotoxic, full curve] and active: 6.16 µM and inconclusive: 4.77 µM [cytotoxic, partial curve]"}, {"smiles": "CC(C)CCCCCCc1ccc(O)cc1", "Potency": "active: 1.25 µM and inconclusive: 54.9 µM [cytotoxic, single point]"}, {"smiles": "CC(=O)c1ccc(S(=O)(=O)NC(=O)NC2CCCCC2)cc1", "max response": "inactive: 0.507% and inactive: 8.7% and inactive: 3.73%"}, {"smiles": "C[C@]12CC[C@@H]3c4ccc(O)cc4CC[C@H]3[C@@H]1CCC2=O", "Potency": "inconclusive: 6.17 µM [cytotoxic, full curve] and inconclusive: 4.29 µM [cytotoxic, full curve] and inconclusive: 21.3 µM [cytotoxic, partial curve]"}, {"smiles": "O=c1ccc2ccccc2o1", "max response": "inactive: -0.397% and inactive: 6.44% and inactive: 2.9%"}, {"smiles": "Cc1c(N(C)C)c(=O)n(-c2ccccc2)n1C", "max response": "inactive: 8.84% and inactive: 0.672% and inactive: 6.67%"}, {"smiles": "CCCCC(CC)COC(=O)CC(C(=O)OCC(CC)CCCC)S(=O)(=O)O", "note": "(centres undefined)", "Potency": "inconclusive: 47.1 µM [cytotoxic, single point] and inconclusive: 43.6 µM [cytotoxic, partial curve]"}, {"smiles": "Oc1ccc(O)cc1", "Potency": "inconclusive: 3.87 µM [rising, full curve] and inconclusive: 3.89 µM [rising, full curve] and inconclusive: 4.77 µM [rising, full curve]"}, {"smiles": "CC1=NN(c2ccccc2)C(=O)C1", "max response": "inactive: -0.0619% and inactive: 3.79% and inactive: -1.74%"}, {"smiles": "COc1ccc(COC(C)=O)cc1", "Potency": "inconclusive: 44.4 µM [rising, partial curve]"}, {"smiles": "Cn1cnc2c1c(=O)[nH]c(=O)n2C", "max response": "inactive: 8.97% and inactive: 7.21%"}]}, {"assay": "A CellTox Green Cytotoxicity Assay to monitor cytotoxicity in HEK293 cells - 24 hour (AID 1224875); further: nearly all actives have a fitted effect of over 45% in size; further: potency means the concentration at half of the fitted maximal effect", "conditions": "CellTox Green fluorescence; series mostly up to 76.8 µM", "procedure,_shortened": "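Homogeneous no-lysis format: HEK293 cell suspension mixed with CellTox Green reagent, seeded, incubated 5 h at 37 C/5% CO2, then dosed by pintool with compound in DMSO.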", "values": [{"smiles": "CC(C)CCCCCCc1ccc(O)cc1", "Potency": "active: 28 µM and active: 38.9 µM"}, {"smiles": "O=C(O)c1ccc2c(c1)C(=O)OC2=O", "Potency": "inconclusive: 21.9 µM [activator, single point]"}, {"smiles": "Cc1cc2nc3c(=O)[nH]c(=O)nc-3n(C[C@H](O)[C@H](O)[C@H](O)CO)c2cc1C", "Potency": "active: 48.5 µM and active: 40.5 µM and active: 11.7 µM"}, {"smiles": "OCCO", "Potency": "inconclusive: 60 µM [activator, single point]"}, {"smiles": "CCN(CC)CCOC(=O)c1ccc(N)cc1", "Potency": "inactive"}, {"smiles": "C[C@]12CC[C@@H]3c4ccc(O)cc4CC[C@H]3[C@@H]1CCC2=O", "Potency": "inconclusive: 55 µM [activator, partial curve, poor fit] and inconclusive: 48.1 µM [activator, single point]"}, {"smiles": "CCCCNS(=O)(=O)c1ccccc1", "Potency": "inactive"}, {"smiles": "c1ccc2n[nH]nc2c1", "Potency": "inconclusive: 12 µM [activator, single point]"}, {"smiles": "CCCCC(CC)COC(=O)CC(C(=O)OCC(CC)CCCC)S(=O)(=O)O", "note": "(centres undefined)", "Potency": "inconclusive: 37.4 µM [activator, partial curve, poor fit]"}, {"smiles": "O=P(O)(O)O", "Potency": "inconclusive: 5.58 µM [activator, single point]"}, {"smiles": "Oc1ccc(O)cc1", "Potency": "inconclusive: 54.6 µM [activator, partial curve, poor fit]"}, {"smiles": "CC(C)(c1ccccc1)c1ccccc1", "Potency": "active: 51.1 µM"}]}]}
